The values that follow come from paper PMC4336329 (PLoS ONE, 2015).

Each structure is given as a SMILES string. Screen size: about 310,000 compounds; about 2,200 (0.71%) showed an effect of 50% or more. Effects have a minus sign here. The list shows a part of the results.

Chain of human ether-à-go-go-related gene (hERG) potassium channel (Q12809 whole entry, looked up): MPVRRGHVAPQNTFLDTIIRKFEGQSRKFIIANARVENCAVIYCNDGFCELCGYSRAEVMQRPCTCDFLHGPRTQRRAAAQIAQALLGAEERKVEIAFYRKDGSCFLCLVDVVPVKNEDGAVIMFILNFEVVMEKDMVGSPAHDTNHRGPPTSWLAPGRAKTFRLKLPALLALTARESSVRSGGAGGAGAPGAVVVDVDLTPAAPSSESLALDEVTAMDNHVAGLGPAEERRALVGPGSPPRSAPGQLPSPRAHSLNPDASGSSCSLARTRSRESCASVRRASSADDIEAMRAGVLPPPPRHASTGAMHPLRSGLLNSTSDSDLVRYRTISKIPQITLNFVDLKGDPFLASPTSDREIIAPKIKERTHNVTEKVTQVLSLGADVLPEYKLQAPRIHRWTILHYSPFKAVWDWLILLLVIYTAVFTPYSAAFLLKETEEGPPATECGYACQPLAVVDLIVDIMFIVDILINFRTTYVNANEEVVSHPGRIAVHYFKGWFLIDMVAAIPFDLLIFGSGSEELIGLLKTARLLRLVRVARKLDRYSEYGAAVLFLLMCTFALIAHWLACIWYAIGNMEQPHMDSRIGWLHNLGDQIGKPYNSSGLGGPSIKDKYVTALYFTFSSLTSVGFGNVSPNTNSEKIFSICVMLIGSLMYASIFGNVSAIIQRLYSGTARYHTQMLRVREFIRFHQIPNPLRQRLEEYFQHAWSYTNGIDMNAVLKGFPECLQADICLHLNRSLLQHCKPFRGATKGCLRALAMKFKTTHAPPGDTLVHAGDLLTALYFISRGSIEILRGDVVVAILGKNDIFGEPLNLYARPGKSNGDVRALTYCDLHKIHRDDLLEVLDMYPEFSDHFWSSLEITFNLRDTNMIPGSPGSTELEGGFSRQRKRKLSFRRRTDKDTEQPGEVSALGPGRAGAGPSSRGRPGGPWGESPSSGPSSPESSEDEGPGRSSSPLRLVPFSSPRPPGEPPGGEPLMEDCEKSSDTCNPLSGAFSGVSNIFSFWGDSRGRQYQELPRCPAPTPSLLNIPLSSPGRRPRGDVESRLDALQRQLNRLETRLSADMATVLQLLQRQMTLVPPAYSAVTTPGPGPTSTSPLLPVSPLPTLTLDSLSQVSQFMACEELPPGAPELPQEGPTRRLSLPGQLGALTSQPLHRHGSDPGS

The experiment concerns the target human ether-à-go-go-related gene (hERG) potassium channel (human, UniProt Q12809). As to the kind of experiment: primary screen, population patch clamp on CHO cells stably expressing hERG.
Regarding `O=C(NCCCn1ccnc1)c1cn(-c2ccccc2)nc1-c1ccc(F)cc1`, the “hERG current change (%, negative = inhibition) at 1uM” value is given as -18.4%.

With `CCOC(=O)COc1cc(-n2c(=S)[nH]c3ccccc3c2=O)c(Cl)cc1Cl`, the “hERG current change (%, negative = inhibition) at 1uM” value is recorded as 0.776%. `CCOC(=O)c1csc(NC(=O)C2CCCCC2)n1`: the “hERG current change (%, negative = inhibition) at 1uM” value was 7.88%. As for `Cc1ccc(C(=O)NC2CCc3ccccc3C2=O)cc1` (centres unmarked), the “hERG current change (%, negative = inhibition) at 1uM” value turned out to be 12%. On to `C[C@H](NC(=O)N1CCn2c1nc1ccccc12)C(=O)NCc1ccco1`, for which the “hERG current change (%, negative = inhibition) at 1uM” value worked out at 7.66%. For the molecule `Cc1cccc(C(=O)NCCN2CCCC2)c1.Cl`, the “hERG current change (%, negative = inhibition) at 1uM” value was 7.66%.

In the case of `C/C(N=Nc1nc2ccccc2s1)=N\Nc1ccccc1O`, the “hERG current change (%, negative = inhibition) at 1uM” value was found to be 10.2%. The figure for `CN(CC(=O)NCCCN1CCOCC1)S(=O)(=O)c1ccc(Br)cc1` is 0.879%. The result for `COc1ccc(/C=C2\SC(=NCc3ccccc3)NC2=O)cc1` reads 0.872%. `Cc1ccc(S(=O)(=O)NC2CC(C)(C)NC(C)(C)C2)c(C)c1C`: the “hERG current change (%, negative = inhibition) at 1uM” value stood at 10.9%.

Take `O=C(CCc1nnc(CCCCc2ccccc2)o1)NCc1cc(F)ccc1F`: the “hERG current change (%, negative = inhibition) at 1uM” value stood at 4.95%. Consider `C=CCc1cccc2cc(C(=O)Nc3ccc(CC(=O)O)cc3)c(=O)oc12`, for which the “hERG current change (%, negative = inhibition) at 1uM” value was determined as 11.6%. Turning to `Cc1cccc(NC(=O)Nc2cc(C)cc(C)n2)c1`, the “hERG current change (%, negative = inhibition) at 1uM” value is listed as 12.5%. On to `O=C(CSc1ccc(-c2ccco2)nn1)Nc1ccccc1`, for which the “hERG current change (%, negative = inhibition) at 1uM” value was -11.7%. The figure for `Oc1[nH]c2ccccc2c1N=Nc1cccc(Cl)c1` is 11.4%.

Turning to `CC1(C)C(=O)N(c2ccccc2)C(=O)c2ccccc21`, the “hERG current change (%, negative = inhibition) at 1uM” value stood at 11.5%. The figure for `COc1cc(NC(=O)Nc2cccc3cccnc23)cc(OC)c1OC` is 11.6%.

With `O=c1cc(NS(=O)(=O)c2ccccc2)nc(SCc2ccc(Cl)cc2)[nH]1`, the “hERG current change (%, negative = inhibition) at 1uM” value is 12.8%. On to `CCOC(=O)N1CCN(C(=O)Cn2ccc3ccccc3c2=O)CC1`, for which the “hERG current change (%, negative = inhibition) at 1uM” value is recorded as -2.58%.

In the case of `Cc1cc(C(=O)COc2ccc(Br)cc2F)c(C)n1C1CC1`, the “hERG current change (%, negative = inhibition) at 1uM” value amounted to 3.09%. Take `O=C(CCCN1C(=O)c2ccccc2C1=O)NCCCn1ccnc1`: the “hERG current change (%, negative = inhibition) at 1uM” value is reported as 22.3%. The result for `COc1ccc(C(=O)CCC(=O)O)c(C)c1` reads 8.99%; that for `Clc1ccc(-c2nnc3sc(Cc4cccs4)nn23)c(Cl)c1`, 5.07%; that for `CCOc1ccc(NC(=S)N(CCc2c(C)[nH]c3ccccc23)Cc2ccco2)cc1`, 8.37%. Regarding `CCC(c1nnnn1CCc1ccccc1)N(Cc1ccco1)Cc1cc2cc(C)cc(C)c2[nH]c1=O` (centres unmarked), the “hERG current change (%, negative = inhibition) at 1uM” value is listed as 6.06%. The figure for `CSc1oc(-c2ccccc2)nc1S(=O)(=O)c1ccc(C)cc1` is 3.2%.
